The values below come from PubChem BioAssay (NCI).

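Values below derive from 48-hour exposures of cells grown in 96-well plates, with endpoints linearly interpolated between the two concentrations bracketing the appropriate inhibition level. GI50: concentration for 50% inhibition of growth. TGI: total growth inhibition.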 Activity calls are given as the source filed them. Rule as the data show it: active = GI50 below about 0.43 µM; inactive = the rest. Bridge positions count the residues as written; N and C are the ends. Square brackets hold non-standard residues; d marks the D form. Peptide text beside a SMILES is read from it. * marks the point of attachment. Cya = N[CH](CS(=O)(=O)O)C(=O)O; X45 = CC(C)CCCCCCCC(O)CC(=O)*; GABA = NCCCC(=O)O

The test system of the assay is NCI-H322M lung. Briefly: NCI anticancer screen, dose series, 48 h.
`C=CC(=O)N1CC2(CCC(n3nc(-c4ccc(Oc5ccccc5)cc4)c4c(N)ncnc43)CC2)C1`: the GI50 is 0.125 µM and the TGI stood at 9.51 µM.
`C/C=C1/C[C@@H](C)[C@@](C)(O)C(=O)OCC2=CC[N+]3([O-])CC[C@@H](OC1=O)[C@@H]23` (some centres undefined) yielded a TGI greater than 100 µM.
For `Cc1ccc(C2(C)CC/C(=N/N=C3/CCC(C)(c4ccc(C)c(C)c4)c4cc(C)c(C)cc43)c3cc(C)c(C)cc32)cc1C` (centres undefined), the TGI was greater than 100 µM.
In the case of `CC(C1CCCC1=O)C1CCCC1=O` (centres undefined), the TGI is greater than 100 µM.
In the case of `COc1ccc(/C(COc2ccc3c(c2)oc(=O)c2cc(OC)ccc23)=N/O)cc1`, the GI50 is 19.8 µM and the TGI is greater than 100 µM.
As to `COC(=O)/C(=C(\C)NC(C)=O)c1c(C(=O)OC)[nH]c2ccccc12`, the TGI is greater than 100 µM.
The compound `c1ccc2c(c1)CN1CCCC1CN2` (centres undefined) had a TGI greater than 100 µM.
On to `CCOC(=O)c1ccc2c(c1)c1c(C)c3cnccc3c(C)c1n2C`, for which the GI50 is 0.382 µM and the TGI came to 2.73 µM.
`COc1cc(Nc2nc3c(N)cc(C(F)(F)F)cc3nc2-c2ccccc2)cc(OC)c1OC` yielded a TGI greater than 100 µM.
Same read-out and setting: under `O=S(CCc1ccccc1)Nc1ccccc1` (centres undefined) stands greater than 100 µM.
In turn, `COC12COC(=O)C1C(c1ccc3c(c1)OCO3)c1cc3c(cc1O2)OCO3` (centres undefined) returned a TGI greater than 100 µM.
`COc1ccc(/C=C/C(=O)c2ccc(NC(=O)CSc3nnc(-c4ccc(OC)c(OC)c4)n3-c3ccccc3)cc2)cc1`: the GI50 is 13.6 µM and the TGI turned out to be 26.4 µM.
For `CC(=O)Nc1ccc(C2C(C(=O)Nc3ccccc3C)=C(C)NC(C)=C2C(=O)Nc2ccccc2C)cc1`, the TGI was greater than 100 µM.
The same measure, in the same setting: under `Cc1ccc(/C=C2\CN(C)CC3=C2NC(=S)NC3c2ccc(C)cc2)cc1` (centres undefined) stands greater than 100 µM; under `O=C(CSc1nnc(Cc2ccccc2)o1)Nc1ccc(Cl)cc1Cl`, greater than 100 µM.
With `CCOC(=O)Nc1nc2cc(OC)c(OC)c(OC)c2s1`, the GI50 is 65.7 µM and the TGI was greater than 100 µM.
Take `O/N=C(\C(=N/O)Nc1ccc(-c2ccc(NC(=N/O)/C(=N\O)c3ccccc3)cc2)cc1)c1ccccc1`: the TGI was determined as 77.8 µM.
In the case of `COc1ccc(C2C(C#N)=C(N)Oc3c2sc2c(C)cccc32)cc1` (centres undefined), the GI50 was 0.802 µM and the TGI worked out at 18.2 µM.
In the case of `CCOC(=O)NN(C(=O)OCC)C(=C(c1ccccc1)N1CCOCC1)N(NC(=O)OCC)C(=O)OCC`, the TGI is greater than 100 µM.
The same measure, in the same setting: under `CCCCSC(=CC(=O)c1cccc(C(=O)C=C(SCCCC)SCCCC)n1)SCCCC` stands greater than 100 µM; under `COc1cccc2c1C(=O)C1(O)CCCCC21` (centres undefined), greater than 100 µM; under `CC(C)CCCCCCCC(O)CC(=O)NC(CS(=O)(=O)O)C(=O)NC(CC(C)C)C(=O)NCCCC(=O)NC(Cc1cnc[nH]1)C(=O)NC(C)C(=O)NC1C(=O)NC(C(C)O)C(=O)NC(Cc2cnc[nH]2)C(=O)NC(C)C(=O)NC(C(C)O)C(=O)OC1C` (centres undefined) (X45-[Cya]L[GABA]HATTHAT; ester 6-C; configuration not given here), greater than 25 µM.
In turn, `CC(C)(C)OCC1NC(=O)[C@@H]2Cc3c([nH]c4ccccc34)C(C3CCCCC3)N2C1=O` (some centres undefined) yielded a TGI greater than 100 µM.
Compound `Cc1cc(C)nc(NS(=O)(=O)c2ccc(NNc3c4ccccc4nc4c(C(=O)Nc5ccc(S(=O)(=O)N=C(N)N)cc5)cccc34)cc2)n1` had a TGI greater than 100 µM.
Still for that read-out and setting: in the case of `C#Cc1nc(N)c2ncn(C3OC(COS(N)(=O)=O)C(O)C3O)c2n1` (centres undefined) it was less than 0.0445 µM.
The same measure, in the same setting: under `CC(=O)NCCC1CN(C(=O)/C=C\I)c2ccccc21` (centres undefined) stands 29.7 µM.
Turning to `COc1cccc2c(Nc3ccc(C(=O)O)cc3)cc(-c3ccccc3)nc12`, the GI50 is greater than 100 µM and the TGI is greater than 100 µM.
`ClCc1nn(-c2ccccc2)c(CCl)c1CCl` gave a TGI of 27.5 µM.
On the same count and under the same terms, in the case of `CC(=O)c1c(SCCN2CCCCCC2)n(-c2ccccc2)c(=S)n(-c2ccccc2)c1=O` it was greater than 61.6 µM; in that of `Cc1c2ccccc2c(C)n2c1nc1cc3ccccc3cc12`, 2.44 µM.
Compound `O=c1nc2n(c3nsnc13)CCO2` had a TGI greater than 100 µM.
Same read-out and setting: under `O=C1Cc2ccccc2N1/N=C\c1ccc([N+](=O)[O-])cc1` stands greater than 100 µM.
The same measure, in the same setting: under `O=C1C[C@@H](c2ccc(O)cc2)[C@@]2(O1)C(=O)O[C@H]([C@@H](O)CO)[C@@H]2O` stands greater than 100 µM.
Compound `CC(=O)OC1COC(n2c3ccccc3c3ccc4c5ccccc5[nH]c4c32)C(OC(C)=O)C1OC(C)=O` (centres undefined) gave a TGI greater than 100 µM.
The compound `CC(=O)OC1(C)C(=O)OC/C2=C/CN(C)CCC(OC(=O)C(O)(C(C)Cl)CC1C)C2=O` (centres undefined) registered a TGI greater than 100 µM.
For `Clc1ccc(-c2noc(CN3CCCCC3)n2)cc1`, the TGI was greater than 100 µM.
On to `Cc1ccc2cc3c(N)c4c(C)ccc(C)c4nc3nc2c1`, for which the GI50 was 1.6 µM and the TGI stood at 3.33 µM.
As to `O=C(O)CCC(N=C(C(=NC(CCC(=O)O)C(=O)O)c1ccccc1)c1ccccc1)C(=O)O` (centres undefined), the TGI is greater than 100 µM.
As to `CC#CC#Cc1cccc(=O)o1`, the GI50 was 6.31 µM and the TGI came to 21.5 µM.
Take `COc1cc(C(=O)/C=C/c2c(C)n([O-])c3ccc(C(F)(F)F)cc3[n+]2=O)cc(OC)c1OC`: the GI50 is 47.6 µM and the TGI is greater than 100 µM.
`O=C(O)CN1CCN(CC(=O)O)CCN(CC(=O)O)CC1`: the result was inactive.
With `COc1ccc([C@H]2[C@H](C)C3=Nc4ccccc4CN32)cc1`, the TGI is greater than 100 µM.
`O=C1CC(c2ccccc2Cl)C2(C(=O)NC(=S)NC2=O)C(c2ccccc2Cl)C1` (centres undefined) came in with a TGI of 4.18 µM.
Turning to `O=C1Cc2c([nH]c3ccc(Cl)cc23)-c2ccccc2N1`, the TGI was greater than 100 µM.
Still for that read-out and setting: under `COc1ccc(/C=C2/SC(c3ccccc3)N(NC(=O)CCCCCCCCC(=O)NN3C(=O)/C(=C\c4ccc(OC)c(OC)c4)SC3c3ccccc3)C2=O)cc1OC` (centres undefined) stands greater than 100 µM; under `COC(=O)C1SC(N(C)c2ccccc2)=NC12c1ccccc1Nc1ccccc12` (centres undefined), 74.3 µM.
For the compound `CC(C)CC(N=Cc1nc(-c2ccccc2)oc1O)C(=O)O` (centres undefined), the TGI is greater than 100 µM.
In the case of `O=c1ccn(C2OC(CN(O)CCC3C(O)C(CO)OC3n3ccc(=O)[nH]c3=O)C(O)C2O)c(=O)[nH]1` (centres undefined), the TGI is greater than 100 µM.
Same read-out and setting: in the case of `CSC(N)=Nc1cccc2ccccc12` it was greater than 10 µM.
With `COC(=O)c1ccc2[nH]c(O)c(C(=Nc3ccc(N(C)C(=O)CN4CCN(C)CC4)cc3)c3ccc(OC)cc3)c2c1`, the GI50 was 2.02 µM and the TGI came out at 7.69 µM.
`CC(=O)c1ccc(NC(=O)/C(CC(=O)/C=C/c2ccccc2)=N/NC(N)=S)cc1` yielded a TGI greater than 100 µM.
In the case of `Cc1ccc2c(c1)c(C1=C(c3cn(C)c4ccccc34)C(=O)NC1=O)cn2C`, the GI50 is 7.93 µM and the TGI was greater than 22.8 µM.
The compound `C=C1CC(Cn2cc(C)c(=O)[nH]c2=O)(c2ccc(Cl)cc2)OC1=O` (centres undefined) displayed a TGI of 30.5 µM.
In turn, `Cc1cn(C2CC(Br)C(COC(c3ccccc3)(c3ccccc3)c3ccccc3)O2)c(=O)[nH]c1=O` (centres undefined) displayed a TGI of 27.2 µM.
As to `O=C(OC1C=C=CS(=O)(=O)CC#C/C=C\1)c1cnc2ccccc2n1` (centres undefined), the TGI is greater than 100 µM.
`O=S(=O)(c1ccccc1)[C@H]1[C@@H]2O[C@@H]2C[C@@H]1O` registered a TGI greater than 100 µM.
The same measure, in the same setting: under `COCn1cnc2c(=O)n(-c3ccc(C)cc3)c(=S)n(-c3ccc(C)cc3)c21` stands greater than 100 µM.
On the same count and under the same terms, under `CCOC(=O)Nn1cnnc1C` stands greater than 100 µM.
On the same count and under the same terms, in the case of `Cc1nc(Nc2ccc(Cl)cc2Cl)sc1C(=O)Nc1ccccc1` it was greater than 100 µM.
For the compound `O=C(CCc1ccc(O)cc1)NCCc1cccc(O)c1`, the TGI was greater than 50 µM.
`Cc1cc(C23OC4COC(C)(C)OC4C2OC(C)(C)O3)nc2ccccc12` (centres undefined) came in with a TGI greater than 100 µM.
Compound `N#CC(C#N)=C(C(C#N)C#N)C(C#N)C#N` gave a TGI greater than 100 µM.
In the case of `C/C(Cc1ccc(Cl)cc1)=C(\c1ccc(OCCN2CCCCCC2)cc1)c1ccc(OC(=O)c2ccccc2)cc1`, the GI50 was 5.85 µM and the TGI came out at 16.1 µM.
Turning to `NC(C(=O)O)c1cc(=O)[nH]o1` (centres undefined), the TGI was greater than 100 µM.
As for `CC1=NN(C2=NS(=O)(=O)c3ccccc3N2C)C(=O)C1`, the TGI is greater than 100 µM.
With `Cc1ccc(-c2c3c(nn2-c2ccc(S(=O)(=O)NC(=O)Nc4ccccc4)cc2)-c2ccccc2C3)cc1`, the GI50 is 13.7 µM and the TGI was determined as 30.4 µM.
`O=C(NNc1cn[nH]c(=O)n1)c1cccc2nc3ccccc3nc12` displayed a TGI greater than 100 µM.
Still for that read-out and setting: under `CC1=C(/C=C/C(C)=C/C=C/C(C)=C/C=C/C=C(C)/C=C/C=C(C)/C=C/C=C(C)/C=C/C=C(\C)C(=O)O)C(C)(C)CCC1` stands greater than 100 µM.
`COC(=O)c1cc2cc(OC)c(OC)cc2cc(C(=O)OC)c1=O` registered a TGI greater than 100 µM.
The compound `CCCCCc1cccc(=O)o1` yielded a TGI greater than 100 µM.
Take `COc1ccccc1N1CCN(CC(O)COc2c(Br)c(Br)c(Br)c3c2OC(C)(C)C3)CC1` (centres undefined): the GI50 is 15 µM and the TGI was determined as 52.6 µM.
`C=C(C(=O)OC1C(CO)OC(OCC2CC[C@@H]3C[C@]4(OC(=O)C3=C)C(C)=CC(=O)C24)C(O)C1O)[C@@H]1CCC(CO)C2C(=O)C=C(C)[C@@]2(O)C1` (some centres undefined) came in with a TGI of 22.3 µM.
Same read-out and setting: in the case of `Cc1ccc(-c2c(C#N)c(-c3ccccc3)c(C#N)c(=O)n2NS(=O)(=O)c2ccc(C)cc2)cc1` it was greater than 100 µM.
The compound `CC1c2ccccc2Cn2cc3c(c21)C(=O)c1cccc(OP(=O)(O)OCc2ccccc2)c1C3=O` (centres undefined) yielded a TGI greater than 100 µM.
Still for that read-out and setting: in the case of `COC(=O)c1cc(CC2Cc3cc4c(cc3C2)CCC4)cc2c1CCC2` it was greater than 100 µM; in that of `COc1cc(/C=C2/SC(c3ccccc3)N(c3cc(Cl)ccc3Cl)C2=O)cc(OC)c1OC` (centres undefined), greater than 100 µM.
With `CC(=O)O[C@H]1C(=O)[C@@]2(C)[C@H]([C@H](OC(=O)c3ccccc3)[C@]3(O)C[C@H](OC(=O)[C@H](OC(=O)OC[C@@H]4COC(C)(C)O4)[C@@H](NC(=O)c4ccccc4)c4ccccc4)C(C)=C1C3(C)C)[C@]1(OC(C)=O)CO[C@@H]1C[C@@H]2O`, the GI50 is 0.101 µM and the TGI was greater than 33.3 µM.
As to `CC(=O)N1CCN([C@H]2CCC[C@@H](NC(=O)c3cc4c(F)ccc(C)c4[nH]3)C2)CC1`, the GI50 is 14.7 µM and the TGI is greater than 100 µM.
The compound `CC1(C)C2CCC1(C)[C@H](O)[C@H]2Nc1cc(C(F)(F)F)cc(C(F)(F)F)c1` (some centres undefined) had a TGI of 18.6 µM.
Still for that read-out and setting: in the case of `COc1cc2c(cc1OC)C1c3ccccc3CCCN1CC2` (centres undefined) it was greater than 100 µM; in that of `CCCCCC(=O)OCCOCCOCCOCCOCCOCc1ccccc1`, greater than 100 µM; in that of `C/C(=C\CO)CC/C=C(\C)CNc1ccccc1`, 44.3 µM.
